Hit rate of the full screen: of about 240,000 compounds, about 15 (0.006%) were called active. The inconclusive results got no clear call from the source; some entries with a clear call stand among them for comparison. Calls follow the shape of the dose curve; as a rule, active = well fitted inhibition curve with a large enough effect; inconclusive = small, poorly fitted or top-dose-only effect, or effect the other way, or another doubt; inactive = no such curve, though single readings can be large or run the other way. No potency is given beside an inconclusive call; the fits are too rough.
What follows are compounds tested against Lysosomal alpha-glucosidase (Homo sapiens) (UniProt P10253) (assay: qHTS Assay for Inhibitors and Activators of Human alpha-Glucosidase From Spleen Homogenate). Settings: 4-MU-alpha-glucoside fluorescence; series mostly up to 79.9 µM.
Source text: NIH Chemical Genomics Center [NCGC] NIH Molecular Libraries Probe Production Centers Network [MLPCN] MLPCN Grant: R03 MH084841-01 Assay Submitter (PI): Wei Zheng NCGC Assay Overview: Alpha-glucosidase is responsible for the hydrolysis of terminal, non-reducing 1,4-linked alpha-D-glucose residues, which releases alpha-D-glucose. It is a lysosomal hydrolase that is required for the degradation of a small percentage (1-3%) of cellular glycogen in humans. Deficiency of this enzyme results in glycogen-storage disease type II (GSDII), also referred to as Pompe disease, an autosomal recessive disorder. Structurally normal glycogen is accumulated in the lysosomes and cytoplasm in affected patients, primarily in muscle tissues. Excessive glycogen storage within lysosomes may interrupt normal functioning of other organelles and leads to cellular injury. In turn, this leads to enlargement and dysfunction of the entire organ involved (eg: cardiomyopathy and muscle weakness). It has been reported that the improper folding and trafficking of alpha-glucosidase resulting from genetic mutations may account for a significant number of Pompe patients. […] We optimized this alpha-glucosidase assay in 1536-well plate format for identification of novel small molecule inhibitors or activators with structures other than the sugar analogs in order to develop new pharmacological chaperones. In particular, this assay is directed towards discovering compounds active in a more natural setting, tissue homogenate, that may have been missed by screens of the purified enzyme under more stringent conditions.
NCGC Assay Protocol Summary: This is a fluorogenic enzyme assay with 4-methylumbelliferyl-alpha-D-glucopyranoside as the substrate and human spleen homogenate containing alpha-glucosidase as the enzyme preparation. Upon hydrolysis of this fluorogenic substrate, the resulting product, 4-methylumbelliferone (which excites at 365 nm and emits at 440 nm) can be detected by a fluorescence plate reader. Data were normalized to the controls for basal activity (without enzyme) and 100% activity (with enzyme). The AC50 values were determined from concentration-response data modeled with the standard Hill equation. Assay buffer: 50 mM citric acid (titrated with potassium phosphate to pH 5.0), 0.01% Tween-20 (pH 5.0 is an optimal condition for this enzyme assay) 1536-well assay protocol for the alpha-glucosidase from human spleen homogenate: (1) Add 2 ul/well spleen homogenate (1 ug) (2) Add 23 nL compounds in DMSO solution. The final titration was 0.5 nM to 58 uM. (3) Add 2 ul of substrate (1 mM final) (4) Incubate at 37 C for 40 min (5) Add 2 ul stop solution (1M NaOH and 1M Glycine mixture, pH 10) (6) Detect the assay plate in a ViewLux plate reader (PerkinElmer) with Ex=365 nm and Em=440nm. Keywords: Alpha-glucosidase, Pompe Disease, pharmacological chaperone, chaperone therapy, high throughput screening, alpha-glucosidase inhibitor, MLSMR, MLSCN, NIH Roadmap, qHTS and NCGC
In the case of `CC(C)Cc1nnc(NC(=O)Cc2ccccc2[N+](=O)[O-])s1`, the Potency is reported as “inactive”.
In the case of `COc1ccc(N2Nc3n[nH]c(N)c3N2)cc1`, the Potency is reported as inconclusive [inhibitor, partial curve].
For `Cc1nc2ccccc2c(=O)n1CCN1CCOCC1`, the Potency was inconclusive [inhibitor, full curve, poor fit].
With `COC(=O)CSc1nc(C)c2ccc(OC)cc2n1` the Potency was inconclusive [activator, partial curve].
With `COc1ccc2c(c1)O[C@H](c1ccc3c(c1)OCO3)[C@@H](OC(=O)NCCOc1ccccc1)C2=O` the Potency was “inactive”.
For `CC(=O)N=c1c(C#N)cc2c(=O)n3cccc(C)c3nc2n1CCCOC(C)C`, the Potency was inconclusive [activator, single point].
In the case of `CCC1C(=O)N=C(SCC(=O)Nc2ccc(S(N)(=O)=O)cc2)NC1=O` (stereo not drawn), the Potency is reported as inconclusive [activator, single point].
`C=C/C1=C/Cc2ccccc2C(C[N+](=O)[O-])C(C(=O)OC)(C(=O)OC)C1` (stereo not drawn) was tested, and the activity change, negative = inhibition was inactive: 2.11% [at 17.4 µM].
In the case of `CCCCNC(=O)CCC(=O)Nc1ccc2nc(N3CCCCC3)cc(C)c2c1`, the Potency is reported as inconclusive [activator, single point].
`Cc1c(O)c(=O)c2ccccc2n1C` was tested, and the Potency was inconclusive [activator, full curve].
`COC(=O)c1ccncc1N` was tested, and the Potency was inconclusive [activator, partial curve].
With `CCOC(=O)C1=CN(Cc2ccc(OC)cc2)C=C(C(=O)OCC)C1c1cccs1` the Potency was inconclusive [activator, single point].
`CC(C)C[C@H](NC(=O)[C@H](CC(C)C)NC(=O)[C@@H](Cc1c[nH]c2ccccc12)NC(=O)[C@H](Cc1ccccc1)NC(=O)[C@@H](Cc1c[nH]c2ccccc12)NC(=O)[C@H](CCC(N)=O)NC(=O)[C@H](CCC(N)=O)NC(=O)[C@@H]1CCCN1C(=O)[C@H](CCCCN)NC(=O)[C@@H]1CCCN1C(=O)[C@H](N)CCCN=C(N)N)C(N)=O` was tested, and the Potency was “inactive”.
`Cc1nc2c(-c3ccc(F)cc3)c(C)nn2c(C)c1CCC(=O)NC(C)CCc1ccco1` (stereo not drawn) was tested, and the Potency was inconclusive [inhibitor, single point].
With `COC(=O)c1cc(OC)c(OC)cc1NC(=O)CCCCCN1C(=O)CCC1=O` the Potency was inconclusive [inhibitor, partial curve].
`NNC(=O)c1cc2c(ccc3ccccc32)o1` was tested, and the Potency was “inactive”.
In the case of `Cc1ccc(OCC(=O)N2CCN(S(=O)(=O)c3ccccc3)CC2)c([N+](=O)[O-])n1`, the Potency is reported as inconclusive [inhibitor, single point].
In the case of `O=C(/C=C/c1ccc(O)c(O)c1)c1ccc(O[C@@H]2O[C@H](CO)[C@@H](O)[C@H](O)[C@H]2O)c(O)c1O`, the Potency is reported as inconclusive [inhibitor, partial curve].
In the case of `COC(=O)Nc1nnc(/C=C/c2ccccc2)s1`, the Potency is reported as inconclusive [activator, partial curve].
With `COc1ccc(C(=O)/C=C/c2cn(CC(O)CN3CCOCC3)c3ccccc23)cc1` (stereo not drawn) the Potency was inconclusive [inhibitor, single point].
`CCc1nnc(NS(=O)(=O)c2ccc(N=Cc3c(C)[nH]n(-c4ccc(C)c(C)c4)c3=O)cc2)s1` was tested, and the Potency was “inactive”.
`CCCCN1C[C@H](O)[C@@H](O)[C@H](O)[C@H]1CO` was tested, and the Potency was active: 1.58 µM.
For `COc1ccc2c(c1O)-c1ccccc1CCN(C)C2`, the Potency was “inactive”.
In the case of `O=C(Cc1cc(=O)oc2cc(O)ccc12)NCC1CCC(C(=O)O)CC1` (stereo not drawn), the Potency is reported as inconclusive [activator, partial curve].
In the case of `COc1ccccc1C(=O)NC(=S)N1CCCc2ccccc21`, the Potency is reported as “inactive”.
`N#Cc1cc([N+](=O)[O-])cnc1N(CCO)CCO` was tested, and the Potency was inconclusive [inhibitor, single point].
`COCCN(CCOC)C(=O)c1cc2c(=O)n3ccccc3nc2s1` was tested, and the Potency was inconclusive [activator, partial curve].
For `Cc1cccc(C(=O)N=c2c(C#N)cc3c(=O)n4cccc(C)c4nc3n2Cc2ccco2)c1`, the Potency was inconclusive [activator, single point].
With `Cc1ccc(-c2cn3cccnc3n2)cc1NC(=O)c1ccc(Br)o1` the Potency was inconclusive [activator, single point].
With `OC[C@H]1OC(O)[C@H](O)[C@@H](O)[C@@H]1O` (stereo partly drawn) the Potency was “inactive”.
`Cc1ccc(NC(=O)CNc2cccc(C)c2C)c(C)c1` was tested, and the Potency was inconclusive [inhibitor, partial curve, poor fit].
With `Cc1ccc(NC(=O)C2(NC(=O)c3ccccn3)CCCCC2)cc1Br` the Potency was inconclusive [inhibitor, partial curve].
`CCCCc1cc(=O)oc2c(CN(C)C)c(O)ccc12` was tested, and the Potency was inconclusive [activator, partial curve].
In the case of `O=C(O)c1cc2c(ccc3ccccc32)oc1=O`, the Potency is reported as inconclusive [activator, partial curve].
`O=C(OCc1nc2ccccc2s1)c1cccc(S(=O)(=O)N2CCOCC2)c1` was tested, and the Potency was inconclusive [inhibitor, partial curve].
For `CC(=O)OCC(NC(=O)C(COCc1ccccc1)NC(=O)OC(C)(C)C)C1OC(n2ccc(=O)[nH]c2=O)C(OC(C)=O)C1OC(C)=O` (stereo not drawn), the Potency was “inactive”.
In the case of `N#Cc1c(-c2cccnc2)c2c([nH]c1=O)-c1ccccc1OC2`, the Potency is reported as inconclusive [activator, partial curve].
With `O=C(O)CC1=C(O)C(=O)N(c2ccccc2)C1c1ccc(Br)cc1` (stereo not drawn) the Potency was “inactive”.
For `CC(=O)Oc1cc(OC(C)=O)c2c(C)cc(=O)oc2c1`, the Potency was inconclusive [activator, partial curve].
For `CCOC(=O)c1c(C)[nH]c(C)c1C(=O)COc1ncnc2cc([N+](=O)[O-])ccc12`, the Potency was inconclusive [inhibitor, full curve, poor fit].
With `O=c1oc2cc(O)ccc2cc1-c1ccc2c(c1)OCCO2` the Potency was “inactive”.
For `COc1ccc(-c2nc(-c3ccccc3)c(NC(C)C)o2)cc1`, the Potency was “inactive”.
In the case of `Nc1ccc(-c2nc3ccc(C(=O)O)cc3s2)cc1`, the Potency is reported as inconclusive [activator, single point].
`C[C@H](Cc1nc2c(cnn2-c2ccccc2Cl)c(=O)[nH]1)C(F)(F)F` was tested, and the Potency was “inactive”.
In the case of `OC[C@@H]1[C@@H](c2ccc(Cl)cc2)C(c2ccccc2)=NN1c1ccccc1`, the Potency is reported as inconclusive [activator, single point].
In the case of `CCCOc1ccc2cc(-c3ccccn3)c(=O)oc2c1`, the Potency is reported as inconclusive [activator, full curve].
For `CCN1C(=O)N/C(=C/c2ccc(C)o2)C1=O`, the Potency was “inactive”.
In the case of `COCCn1nnnc1CN(Cc1cc2cc(OC)c(OC)cc2[nH]c1=O)C1CCCC1`, the Potency is reported as inconclusive [activator, single point].
With `CC(=O)Oc1ccc2c(C)c(CC(C)O)c(=O)oc2c1` (stereo not drawn) the Potency was inconclusive [activator, partial curve].
In the case of `CC(=O)N1CCC2(CC1)CC(=O)c1cc(OCC(=O)N3CCC4(CC3)OCCO4)ccc1O2`, the Potency is reported as inconclusive [activator, single point].
`O=C1NCCCC2c3cc(O)c4ccccc4c3OC12N1CCCCC1` (stereo not drawn) was tested, and the Potency was “inactive”.
`Fc1ccc(N2N=C(c3cccs3)CC2c2ccco2)c(F)c1` (stereo not drawn) was tested, and the Potency was inconclusive [activator, single point].
In the case of `O=C(N/N=C/c1cn(Cc2ccccc2)c2ccccc12)c1ccncc1`, the Potency is reported as inconclusive [inhibitor, partial curve, poor fit].
`COc1cc(CNc2ccc3[nH]c(=O)[nH]c3c2)ccc1OCC(=O)NC(C)(C)C` was tested, and the Potency was “inactive”.
For `CCOC(=O)c1cc2c(=O)n3ccccc3nc2n(CCOC)c1=NC(=O)C(C)(C)C`, the Potency was inconclusive [activator, full curve].
For `CCc1c2c(nc3cccc(C(C)C)c13)-c1cccc(=O)n1C2`, the Potency was inconclusive [activator, single point].
With `CC(=O)Nc1cccc2c1C(=O)NC2=O` the Potency was inconclusive [inhibitor, full curve].
`COC(=O)c1ccc(COc2ccc(/C=N/Nc3nc(C)cc(=O)[nH]3)cc2)cc1` was tested, and the Potency was inconclusive [inhibitor, partial curve, poor fit].
In the case of `Cc1cc(C)nc(N/N=C/c2sccc2C)n1`, the Potency is reported as “inactive”.
For `O=[N+]([O-])c1cc(CN2CCCC2)c2cccnc2c1O`, the Potency was “inactive”.
For `CN(C)C(=O)c1ccc(-c2ccc3ncnc(N4CCNCC4)c3c2)cc1`, the Potency was “inactive”.
`CCCCOc1ccccc1C1C(C(=O)OC)=CN(CC)C=C1C(=O)OC` was tested, and the Potency was inconclusive [activator, single point].
`COC(=O)[C@@]1(C)C=C[C@@H](Cc2ccccc2)N1C(C)=O` was tested, and the Potency was “inactive”.
For `CCn1ccnc1CN(C)Cc1cn(-c2ccc(C)cc2)nc1-c1ccc(F)cc1`, the Potency was “inactive”.
`COc1ccc(C2=Nn3c(nnc3-c3ccccc3OC)SC2)cc1OC` was tested, and the Potency was inconclusive [inhibitor, single point].
With `COc1ccc(-c2nc(-c3ccccc3)c(-c3cc([N+](=O)[O-])ccc3C)[nH]2)cc1O` the Potency was “inactive”.
With `O=C(Nc1ccccc1Cl)c1ccc(S(=O)(=O)N2CCOCC2)cc1` the Potency was inconclusive [inhibitor, full curve, poor fit].
`COc1ccc2nc3ccccc3nc2c1NC(=O)c1ccc(Cl)cc1Cl` was tested, and the Potency was “inactive”.

Source: PubChem BioAssay AID2112 (National Center for Advancing Translational Sciences (NCATS), 2009)
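For activity change, negative = inhibition in this document: 0% = enzyme with vehicle and -100% = no enzyme basal signal.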
Potency is read from the fitted curve at half-maximal effect; tags tell the direction and shape of the fitted curve.
